Data: publication PMC4625158, “Structural evidence for the role of polar core residue Arg175 in arrestin activation” (Scientific Reports, 2015)

Biological target: the molecule itself
Experiment: SAXS; small angle X-ray scattering in solution, 10 °C, 10 mM HEPES, 150 mM NaCl, pH 7.5; concentration series (arr-1: 1.9, 3.0 and 8.5 mg/mL; R175E: 0.4, 0.9 and 1.7 mg/mL; p44: 1.0, 2.0 and 4.6 mg/mL), data extrapolated to infinite dilution

B1: visual arrestin-1 (bovine, full length, […]) (natural protein)
chain: not shown
notes: visual arrestin-1 (arr-1), bovine, full length […]; The calculated mass of the dimer is 94.2 kDa (47.1 kDa per chain, as for R175E), so it probably carries the same unnamed tags as m1; also called arr-1; wild type arr-1; source: Saccharomyces cerevisiae F11 alpha strain, purified
  stoichiometry N: 2
